Data: paper PMC4336329 (PLoS ONE, 2015)
Out of some 310,000 compounds screened, about 14,000 (4.5%) showed an effect of 50% or more. The effect is printed as a negative number. This is one part of the list.

biological target: human ether-à-go-go-related gene (hERG) potassium channel (human, UniProt Q12809); experiment: primary screen, population patch clamp on CHO cells stably expressing hERG
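Further: peak tail current of the secondary pulse compared with the same well before compound.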

Chain of human ether-à-go-go-related gene (hERG) potassium channel (Q12809 whole entry, looked up): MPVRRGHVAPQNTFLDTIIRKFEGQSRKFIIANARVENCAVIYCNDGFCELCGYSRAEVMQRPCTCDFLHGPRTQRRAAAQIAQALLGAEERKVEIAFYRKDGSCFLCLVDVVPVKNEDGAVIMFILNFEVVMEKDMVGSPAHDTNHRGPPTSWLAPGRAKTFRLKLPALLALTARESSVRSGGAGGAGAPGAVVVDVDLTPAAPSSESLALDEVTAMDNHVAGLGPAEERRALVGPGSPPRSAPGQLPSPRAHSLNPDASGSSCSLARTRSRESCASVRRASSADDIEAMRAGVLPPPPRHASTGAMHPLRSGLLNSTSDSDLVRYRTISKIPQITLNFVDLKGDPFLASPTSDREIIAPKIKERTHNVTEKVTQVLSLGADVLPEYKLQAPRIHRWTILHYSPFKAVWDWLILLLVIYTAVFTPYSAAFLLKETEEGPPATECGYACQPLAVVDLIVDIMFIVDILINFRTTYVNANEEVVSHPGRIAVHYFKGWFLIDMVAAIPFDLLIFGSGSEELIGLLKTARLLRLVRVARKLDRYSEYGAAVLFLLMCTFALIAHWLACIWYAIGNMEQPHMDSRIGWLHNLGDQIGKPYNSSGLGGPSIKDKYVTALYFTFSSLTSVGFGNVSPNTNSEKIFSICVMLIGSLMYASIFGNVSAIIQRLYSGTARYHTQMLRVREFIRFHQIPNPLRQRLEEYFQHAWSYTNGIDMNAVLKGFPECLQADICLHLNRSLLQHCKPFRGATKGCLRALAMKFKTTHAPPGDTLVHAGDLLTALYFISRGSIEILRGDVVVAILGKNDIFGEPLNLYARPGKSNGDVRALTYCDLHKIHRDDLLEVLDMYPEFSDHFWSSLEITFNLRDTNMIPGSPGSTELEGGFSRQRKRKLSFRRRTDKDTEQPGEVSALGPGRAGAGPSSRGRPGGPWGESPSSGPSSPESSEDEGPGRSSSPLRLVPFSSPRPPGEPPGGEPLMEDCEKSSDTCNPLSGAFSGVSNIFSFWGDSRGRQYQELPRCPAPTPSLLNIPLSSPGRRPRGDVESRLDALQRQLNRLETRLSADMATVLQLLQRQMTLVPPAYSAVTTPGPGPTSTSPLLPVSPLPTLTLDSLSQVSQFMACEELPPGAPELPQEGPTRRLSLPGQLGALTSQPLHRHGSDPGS

Compound | hERG current change (%, negative = inhibition) at 10uM
Cc1nc(COC(=O)c2ccc(CO)cc2)cs1 | 14.1%
C/C(N)=C(/C#N)C(=O)CSc1nc2ccccc2c(=O)n1-c1ccccc1C | 6.46%
CCOc1ccc(OCC)c(S(=O)(=O)NCc2ccc3c(c2)OCO3)c1 | -19.1%
O=C(/C=C/Nc1ccc(F)cc1Br)c1ccccc1 | 11.9%
COc1ccccc1-n1c(SCC(=O)NCc2ccc3c(c2)OCO3)nc2cc([N+](=O)[O-])ccc21 | -18.1%
CC(=Nc1cc(C(=O)c2ccccc2)ccc1N)C1=C(O)CC(C)(C)CC1=O | 6.72%
COc1cc(/C=C/C(=O)OCC(=O)NC(=O)NC(C)(C)C)ccc1O | -14.5%
CCCCn1c(N)c(N(CC(C)C)C(=O)CN(C)S(=O)(=O)c2ccc(NC(C)=O)cc2)c(=O)[nH]c1=O | 11.3%
CSc1ccc(CN2CCN(c3ccccc3C)CC2)cc1.O=C(O)C(=O)O | -54.5%
O=C(Nc1cc2c(cc1Cl)OCCCO2)c1ccco1 | -17.7%
FC(F)(F)c1ccnc(NCc2ccc(Cl)cc2)n1 | -7.18%
O=C(CCNC(=O)Cn1ccc2ccccc2c1=O)NCCCN1CCN(c2ccccc2F)CC1 | 10.1%
C=CCNC(=S)N1CC2(C)CN(C(=S)NCC=C)CC(C)(C1)C2=O | 21.3%
O=C(COc1ccc(Cl)cc1)N1CCCC1 | -7.47%
CN(C)c1ccc(NC(=O)c2cc3c(=O)n4ccccc4nc3n2C)cc1 | 16.1%
COC(=O)C1=C(CSc2nc3c(cc2C#N)CN(C)CC3)OC(N)=C(C#N)C1c1ccccc1F (centres unmarked) | -17.6%
O=C(CNc1ccccc1Cl)Nc1cc(S(=O)(=O)N2CCOCC2)ccc1Cl | 0.286%
Cn1cc(S(=O)(=O)NCc2ccc(F)cc2)c(=O)n(C)c1=O | 17.8%
O=C(O)/C=C/C(=O)NCc1cn(-c2ccccc2)nc1-c1cccc(Br)c1 | 4.13%
COc1ccccc1NC(=O)N(Cc1ccco1)Cc1cc2cc(C)cc(C)c2[nH]c1=O | -2.39%
O=C(NCc1ccccc1F)C1CCN(C(=O)NCc2ccccc2)CC1 | -8.65%
CCOC(=O)Cc1csc(NC(=O)CN2CCN(c3ccccc3)CC2)n1 | 4.89%

Compound | hERG current change (%, negative = inhibition) at 10uM
COCCn1nnnc1C(c1cccc(C(F)(F)F)c1)N1CCOCC1.Cl (centres unmarked) | 21.4%
COc1ccc(C(=O)NC(=S)N2CCNC(=O)C2)cc1Br | 5.43%
Cc1nnc(NC(=O)c2ccc3c(c2)NC(=O)CS3)s1 | 12.5%
CC(NC(=O)CN1C(=O)NC(C)(c2cccc3ccccc23)C1=O)c1ccccc1 (centres unmarked) | 3.66%
CC(C)c1ccc(N(CC(=O)NCC2CCCO2)C(=O)Cn2nnc(-c3cccs3)n2)cc1 (centres unmarked) | -42.5%
CCOC(=O)c1c(-c2ccc(C)o2)csc1NC(=O)CSc1ncn[nH]1 | 3.96%
COc1cccc(-c2cc(C(=O)O)no2)c1 | -9.77%
CC(=O)c1ccc(NC(=S)N(Cc2ccccc2)C(C)C2CC2)cc1 (centres unmarked) | 5.51%
CC(O)c1nc2ccccc2n1Cc1ccc([N+](=O)[O-])cc1 (centres unmarked) | -73.4%
CN(C)c1cc[n+](Cc2c(Cl)cccc2Cl)cc1.[Cl-] | 18.6%
O=C(/C=C/c1cc(Br)ccc1F)OCC(=O)N1CCCC1 | -21.9%
Cc1ccnc(N2CCCC(C(=O)NCc3cccs3)C2)n1 (centres unmarked) | -3.18%
CC(c1ccccc1)[n+]1ccccc1.[O-][Cl+3]([O-])([O-])[O-] (centres unmarked) | 8.98%
COc1cccc(/C=c2/s/c(=C(\C#N)C(=O)N3CCOCC3)n(-c3ccccc3)c2=O)c1 | 4.8%
O=C(Nc1cccc(Cl)c1)c1ccc2c(c1)OCCO2 | -0.988%
CCOc1ccc(N(CC(=O)NC2CCCCC2C)S(=O)(=O)c2c(C)noc2C)cc1 (centres unmarked) | 22.8%
Cc1ccc(NC(=O)CN2CCN(C(=O)C3CCCO3)CC2)c(C)c1 (centres unmarked) | -35.5%
CCN(CCn1cccn1)C(=O)c1ccc2nc(Cc3ccc(OC)cc3)oc2c1 | -1.32%
O=C(CN(Cc1ccco1)C(=O)c1ccc(N2CCCC2=O)cc1)Nc1ccccc1C(F)(F)F | -46.3%
Cc1cc(C(=O)CCC(=O)N(C)CC(=O)Nc2ccccc2Br)c(C)s1 | -5.42%
C=CCc1ccccc1OCC(O)CN1CCN(C(=O)OCC)CC1.Cl (centres unmarked) | -11.3%
CNC(=O)c1cc2cc(Cc3ccccc3Cl)ccc2oc1=O | 1.75%

Compound | hERG current change (%, negative = inhibition) at 10uM
O=S(=O)(Cc1ccc(Cl)cc1)N1CCCC1 | -7.31%
Cc1ccc2cccc(OCc3ccc(Br)cc3)c2n1 | 8.51%
CCCCn1c(O)c(N=NC(=O)c2ccncc2)c2cc(Br)ccc21 | -68.1%
O=C(CS(=O)CC(=O)N(c1ccccc1)C(C(=O)NC1CCCCC1)c1ccco1)Nc1ccc(F)cc1 (centres unmarked) | -1.48%
N#CCCN(CCC#N)C(=O)c1ccc2c(c1)OCO2 | 5.31%
Cc1cc(C)nc(SCC(=O)Nc2nccs2)n1 | 14.8%
CCOC(=O)CSC1=C(C#N)C(=O)NC2(CCCCC2)S1 | 19%
O=C(C1=C[C@H](c2ccc(C(F)(F)F)cc2)C[C@H](OCCCCO)O1)N1CCN(Cc2ccc3c(c2)OCO3)CC1 | -44.1%
Cc1cc(/C=C2\SC(=S)N(C)C2=O)c(C)n1-c1ccc(O)cc1 | 25.3%
Cc1csc2c(C#N)c(=O)c3c(n12)CCC3 | 8.6%
COc1ccccc1N1C(=O)CC1(C#N)c1ccc(OCc2ccccc2)cc1 (centres unmarked) | 7.52%
COc1ccc(S(=O)(=O)NCCSC(C)(C)C)c(Cl)c1Cl | -19.3%
O=C(NCc1cccnc1)C1CCCN(S(=O)(=O)c2ccc(Br)cc2)C1 (centres unmarked) | -41.6%
COc1ccccc1C(=O)N/C(=C/c1ccc(Br)cc1)C(=O)NCCCn1ccnc1 | -87%
O=C(O)C(=O)Cc1c[nH]c2ccccc12 | 19.2%
O=C(NCc1ccccc1Cl)C1CCN(S(=O)(=O)N2CCCCC2)CC1 | 1.33%
CCn1nc(C)cc1C(=O)N1CCCC(CCC(=O)NCc2ccccc2F)C1 (centres unmarked) | 26.4%
CN(c1ccccc1)S(=O)(=O)c1cc(C(=O)OCC(=O)N2CCN(C(=O)c3ccco3)CC2)ccc1Cl | -68.3%
CCOC(=O)N1CCN(S(=O)(=O)c2cc(Cl)ccc2Cl)CC1 | -2.29%
Cc1cccc(C(=O)N(c2ccccn2)C(C)c2ccco2)c1 (centres unmarked) | 3.03%
CCOCCOC(=O)c1ccc(NC(=O)c2cc(OC)c(OC)c(OC)c2Br)cc1 | -6.1%
Cn1c(COc2ccc(Cl)cc2)nnc1SCC(=O)Nc1ccc2c(c1)CCC2 | 15%

Compound | hERG current change (%, negative = inhibition) at 10uM
COc1ccc(S(=O)(=O)NCC2CCCN(Cc3ccc(O)cc3)C2)cc1 (centres unmarked) | -59.2%
CC(/C=N/NC(=O)c1nnn(-c2nonc2N)c1C(C)C)=C\c1ccccc1 | 14.8%
CCCN1CCC(=O)N(CCSc2ccc(NC(C)=O)cc2)CC1 | 6.8%
CC(C)C[C@H]1C(=O)N2CCC[C@H]2[C@]2(O)O[C@](NC(=O)[C@@H]3C=C4c5cccc6[nH]cc(c56)C[C@H]4N(C)C3)(C(C)C)C(=O)N12 | -12.6%
COCCOC(=O)c1nccnc1C(=O)Nc1ccc(S(=O)(=O)N2CCOCC2)cc1 | -0.241%
O=C(Nc1ccc(Cl)cn1)C1CC1 | -10.7%
CCN1C(=O)N[C@@H](CCc2ccccc2)[C@H](C(C)=O)[C@H]1C | -4.7%
CCc1cc2ccc(OC)cc2nc1SCC(=O)Nc1cc(C)on1 | -3.99%
O=C(COc1cccc2cccnc12)N/N=C1\SCC(=O)N1CCc1ccccc1 | -41.5%
Cc1ccc(C)c(OCc2cc(C(=O)N3CCN(c4ccccc4)CC3)no2)c1 | -31.4%
Cn1c(CSCc2ccc(Cl)cc2)nnc1SCC(=O)Nc1nccs1 | -0.617%
CC(C)c1ccc(NC2CCCN(C(=O)c3cccc4nccnc34)C2)cc1 (centres unmarked) | 3.92%
CCOC(=O)c1c(NC(=O)c2ccccc2)sc2c1CCc1ccccc1-2 | 17.2%
Cc1ccc(F)cc1NC(=O)COC(=O)c1ccc2ncsc2c1 | -5.08%
Brc1ccc(C2=Nc3cccc4cccc(c34)N2)o1 | 16.7%
COc1ccc(S(=O)(=O)N2CCCCCC2)cc1C(=O)OCC(=O)NC(N)=O | -9.58%
Cc1cc(C(F)(F)F)nc(SCC(=O)NC2CCCCC2)n1 | -10%
COC(=O)CCC(=O)NS(=O)(=O)c1ccc(N=NN2CCOCC2)cc1 | 6.75%
COc1ccc(S(=O)(=O)NCC(c2ccc(F)cc2)N2CCN(C)CC2)cc1 (centres unmarked) | -36.4%
CSC1=N/C(=C\c2ccc(C)o2)C(=O)S1 | -1.31%
